Measurements from ChEMBL document CHEMBL4888484, “Replenishing the malaria drug discovery pipeline: Screening and hit evaluation of the MMV Hit Generation Library 1 (HGL1) against asexual blood stage Plasmodium falciparum ,using a nano luciferase reporter read-out” (2022).
The whole screen tested about 150,000 compounds, of which about 540 (0.36%) showed an effect of 50% or more. The list shows a part of the results.

test system: Plasmodium falciparum; test: Primary screen in NF54 nanoGlo assay, in single point, at 2uM, 72h; a lower Z score goes with more inhibition; format: functional, Erythrocyte; conditions: timepoint 72 hour

Row | SMILES | % Inhibition | Z score
1 | CCOc1ccc(CCn2c3c(c(=O)[nH]c2=O)C(C(F)(F)F)(C(F)(F)F)N=C(c2ccccc2F)N3)cc1OCC | -18% | 2.33
2 | OC1(c2csc(CN3CCc4ccccc4C3)n2)CCNCC1 | 10% | -1.22
3 | C[C@H]1Cc2cc(C(=O)NCc3nc(C(F)(F)F)n[nH]3)ccc2O1 | 43% | -6.15
4 | O=C(NCCc1cccc(-c2ccccc2)c1)[C@H]1CCNC1 | -16% | 1.87
5 | Cc1ccc(-c2cc(C(=O)NC3CC3)nn2C)cc1 | -10% | 1.31
6 | COC(=O)c1c(-c2csc(-c3ccc(NC(C)=O)cc3)n2)c(C)n(C(C)C)c1C | -11% | 1.48
7 | Oc1ccc2c(c1)CN([C@H]1CCCc3ccccc31)CC2 | -5% | 0.69
8 | O[C@H](CN1CCCNc2ccccc21)Cn1cccn1 | 5% | -0.6
9 | COC(=O)c1cc(-n2cnc3ccccc32)c[nH]1 | -16% | 1.77
10 | CCc1noc(C)c1COc1cc(N(C)C)ccc1C(C)=O | 23% | -2.56
11 | CC(C)(C)c1cccc(OS(=O)(=O)c2cccnc2)c1 | -12% | 1.9
12 | Cc1cc(N2CC[C@H](c3ccc(C(=O)O)cc3)C2)nc2ccccc12 | -12% | 2.19
13 | Cc1ccc([C@H](CNC(=O)c2ccc(Br)o2)N2CCCC2)o1 | -2% | 0.4
14 | O=C(N[C@H](C(=O)c1ccccc1)N1CCCC1)c1ccccc1 | -7% | 0.98
15 | CNC(=O)[C@H]1CCN(Cc2csc(-c3ccc(C(F)(F)F)cc3)n2)C1 | -6% | 0.9
16 | Cc1ccc(C(=O)N(C2CC2)[C@H]2CCc3ccccc32)c(=O)[nH]1 | -11% | 1.24
17 | CCc1onc(C)c1NC(=O)N1CCN(C)C[C@@H]1CC(C)C | -7% | 1.44
18 | O=S(=O)(Nc1cccc(-c2nnc3n2CCC3)c1)c1ccc2c(c1)OCCCO2 | 34% | -4.53
19 | COc1c(C)cc(C2CCc3nc(C(=O)NCCCN4CCCCC4C)cn3C2)cc1C (stereo not given) | 5% | -1.07
20 | CCc1nc(-c2ccc(-c3noc(-c4ccc(C#N)cc4F)n3)cc2)cs1 | -10% | 1.06
21 | CN(C)c1ccc(-n2cnnc2)cc1N | -10% | 1.41
22 | Cc1noc(C)c1S(=O)(=O)N1CC[C@H](c2ccc3c(c2)CCO3)C1 | 4% | -0.74

Row | SMILES | % Inhibition | Z score
23 | CN1CCN(c2c(F)cc3c(=O)c(C(=O)Nc4cc(F)c(F)cc4N)cn4c3c2OCN4C)CC1 | 15% | -2.84
24 | Cc1noc(C)c1CC(=O)Nc1cc(C2CCCCCC2)[nH]n1 | 1% | -0.15
25 | C[C@H](Oc1ccccc1)C(=O)N1CCC(c2nc(-c3ccncc3)cs2)CC1 | -3% | 0.46
26 | CCNc1ncc(C(=O)N2CCC[C@H]2c2nc(-c3ccccc3)no2)cn1 | -13% | 2.48
27 | CC1CN(C(=O)CN2CCOCC2=O)C(c2ccccc2)CO1 (stereo not given) | 2% | -0.24
28 | CCCc1nnc(N2CCC(O)(CO)CC2)o1 | -7% | 0.95
29 | CCOC(=O)[C@H]1CCCN(Cc2ccc(N3CCOCC3)cc2)C1 | -14% | 1.83
30 | Cc1onc(C(=O)N[C@H]2CCCN(c3ccc(=O)n(C)n3)C2)c1CN1CCCCC1 | -2% | 0.3
31 | O=C1NCCOc2cc3c(cc21)CCCC3 | -37% | 4.32
32 | O=C(C[C@@H]1NC(=O)NC1=O)NC(c1ccccc1)C1CCC1 (stereo not given in full) | -3% | 0.46
33 | OC[C@H]1CCN(c2ccnc3cc(Cl)ccc23)C[C@@H]1O | -1% | 0.17
34 | C[C@@H](c1ccccc1)n1c(NC(=O)c2ccccc2Cl)c(S(=O)(=O)c2ccccc2)c2nc3ccccc3nc21 | -4% | 0.43
35 | COc1cccc(CN2CCC[C@@]3(CCN(C(=O)c4cc(C)nc(N)n4)C3)C2=O)c1 | 2% | -0.33
36 | CCC1([C@@](O)(C#CCN(Cc2ccccc2)C(C)(C)C)c2ccccc2)CCCC1 | 33% | -3.73
37 | Cc1cc(CN[C@@H](C(=O)N2CCCCC2)c2ccccc2)no1 | -10% | 2.11
38 | CCCCN1CCN(C(=O)[C@H]2C[C@@H]2c2ccccc2)CC1=O | -9% | 1.62
39 | Nc1ncnc(N2CCc3cccc(F)c3C2)c1Cl | -8% | 1.28
40 | COc1cccc(CN2Cc3c[nH]nc3[C@@H](C)C2)c1C | -11% | 2.04
41 | CCn1ccc(C(=O)Nc2ccc3c(c2)OCO3)n1 | -11% | 1.8
42 | Cc1cc(NC(=O)NC2CCCC2C(=O)OC(C)(C)C)no1 (stereo not given) | -2% | 0.33
43 | COc1ccccc1N1CCN(C(=O)c2[nH]nc3c2CCC3)CC1 | -1% | 0.09
44 | CON(C[C@H]1CCCc2ccccc21)C(=O)c1cn(C)cn1 | 11% | -1.29

Row | SMILES | % Inhibition | Z score
45 | CCC(OC1CCCC(C)C1)C(=O)NC(C(N)=O)C(C)C (stereo not given) | -3% | 0.46
46 | COC(=O)CCNC(=O)CC[C@@H]1NC(=O)c2ccccc2NC1=O | 3% | -0.4
47 | CCn1c(NC(=O)[C@H]2CCOC2)nc2ccc(Br)cc21 | -6% | 0.81
48 | CC(C)CCOC1CCN(C(=O)[C@H]2CCC(=O)N2)C1 (stereo not given in full) | -9% | 1.64
49 | COC(=O)c1cn(-n2c(O)cc(C)c(C#N)c2=O)cc2c(O)nnc1-2 | 15% | -2.44
50 | Cc1cnc2cc(C(=O)NC[C@H]3CCCCN3C3CC3)ccn12 | 3% | -0.6
51 | CCOCCn1cc(Br)cc(Br)c1=O | -20% | 2.05
52 | CC(OCC1CCCO1)C(=O)N1CCCCC1C(O)c1ccccc1 (stereo not given) | -7% | 0.94
53 | Cc1ccc(C(=O)N2C[C@H]3CN(C(=O)c4ccccc4)C[C@@]3(CN(C)C)C2)cc1F | -11% | 1.45
54 | Cc1cc(C(=O)N2CCOCC2)c(C)n1C(C)C | 5% | -0.74
55 | COCC1(CNC(=O)CCCn2cccn2)CCC1 | -5% | 0.97
56 | Cc1cc(C)n(C(=O)CN2N=C(C(=O)Nc3ccccc3)CCC2=O)n1 | -9% | 1.11
57 | Cc1noc(CCNC(=O)N2CC3CCCCC32c2ccccc2)n1 (stereo not given) | -7% | 0.7
58 | CN(C)[C@H]1CN(C(=O)[C@H]2CC[C@H](C)CC2)C[C@@H]1O | -18% | 2.31
59 | C[C@@H](CNC(=O)COc1ccsn1)COCc1ccccc1 | -11% | 2.24
60 | COCC(=O)N1CCN(C)C[C@H]1C(=O)NCCc1ccc(C)o1 | -2% | 0.42
61 | COc1ccc(NC(C)=O)cc1NC(=O)N[C@@H](C)c1n[nH]c(C)n1 | -6% | 0.63
62 | Cc1ccc([C@H](C)NCCCN2CCN(C(C)C)CC2)cc1F | -7% | 1.11
63 | C[C@@](O)(CNC(=O)c1ccccc1F)Cc1ccsc1 | -2% | 0.27
64 | C[C@H](Nc1cc(-c2ccccc2F)nc2ccnn12)c1nnn[nH]1 | -1% | 0.09
65 | Cc1ccc(NC(=O)c2ccc(S(=O)(=O)c3ccc(Cl)cc3)o2)cc1C | -6% | 0.77
66 | CCN=C(NCCOC)NCCc1nc(CC)c(C)s1 | -10% | 0.97

Row | SMILES | % Inhibition | Z score
67 | CC(C)CN1C(=O)CC[C@@H]2CN(C(=O)c3ccccc3Cl)CC[C@@H]21 | -6% | 1.17
68 | O=C(c1c[nH]c2ccccc12)N1CCCC1 | 3% | -0.5
69 | Cn1ccc(N2CCCC(NC(=O)N3CCOC(c4cccc(O)c4)C3)C2=O)n1 (stereo not given) | -8% | 1.41
70 | CC(C)NC(=O)CCCc1nnc(C(=O)Nc2cccc(Cl)c2)s1 | -5% | 0.67
71 | CCCN(C/C=C/c1ccccc1)C(=O)[C@@H]1CCC[C@H](N)C1 | -15% | 2.51
72 | Cn1c(-c2cc3n(n2)CCCN(C(=O)c2ncn[nH]2)C3)nc2ccccc21 | 5% | -0.64
73 | COc1ccc(-c2nc3cc(C)ccc3cc2CN2CCN(C)C(=O)[C@@H]2C)cc1 | -11% | 1.89
74 | Cn1cc(-c2nc(C3CCCC3)cs2)cn1 | 0% | -0.02
75 | CCC1(c2noc(C3CCOCC3)n2)CCCC1 | -3% | 0.39
76 | Cc1cnc(NC(=O)CC2(Cn3cnc4ccccc4c3=O)CCCCC2)s1 | 28% | -3.18
77 | CC(C)N1CC[C@H](CNC(=O)NCC2(c3ccccc3)CC2)C1 | -8% | 1
78 | CCCNC(=O)CNC(=O)c1ccsc1 | -6% | 1.17
79 | O=C(Cc1cccc(Br)c1)NCc1cccc(-c2ncc[nH]2)c1 | -8% | 1.26
80 | Cc1cc(C(=O)N[C@H]2CCOC[C@H]2C2CCOCC2)nc(C)n1 | -7% | 1.25
81 | COc1ccc(NC(=O)Cn2c(C(F)(F)F)nc3cc4c(cc32)OCCCO4)cc1 | 35% | -5.09
82 | CC(CNC(=O)C1CCS(=O)(=O)C1)CN(C)C(=O)OC(C)(C)C (stereo not given) | 1% | -0.13
83 | Nc1c(-c2ccccc2)cnn1-c1nc2ccccc2s1 | 5% | -0.58
84 | COc1ccccc1N1CCN(C(=O)c2nnn(-c3ccc(C)c(Cl)c3)c2C)CC1 | 32% | -3.57
85 | COc1cnc(-c2cccc(C(F)(F)F)c2)nc1Oc1cccc(C(F)(F)F)c1 | -10% | 1.16
